In all, about 310,000 compounds went through this assay and about 2,200 (0.71%) showed an effect of 50% or more. Effects have a minus sign here. This is one part of the list.
These molecules were tested against human ether-à-go-go-related gene (hERG) potassium channel (human, UniProt Q12809) (assay: primary screen, population patch clamp on CHO cells stably expressing hERG).
Sequence of human ether-à-go-go-related gene (hERG) potassium channel (Q12809 whole entry, looked up): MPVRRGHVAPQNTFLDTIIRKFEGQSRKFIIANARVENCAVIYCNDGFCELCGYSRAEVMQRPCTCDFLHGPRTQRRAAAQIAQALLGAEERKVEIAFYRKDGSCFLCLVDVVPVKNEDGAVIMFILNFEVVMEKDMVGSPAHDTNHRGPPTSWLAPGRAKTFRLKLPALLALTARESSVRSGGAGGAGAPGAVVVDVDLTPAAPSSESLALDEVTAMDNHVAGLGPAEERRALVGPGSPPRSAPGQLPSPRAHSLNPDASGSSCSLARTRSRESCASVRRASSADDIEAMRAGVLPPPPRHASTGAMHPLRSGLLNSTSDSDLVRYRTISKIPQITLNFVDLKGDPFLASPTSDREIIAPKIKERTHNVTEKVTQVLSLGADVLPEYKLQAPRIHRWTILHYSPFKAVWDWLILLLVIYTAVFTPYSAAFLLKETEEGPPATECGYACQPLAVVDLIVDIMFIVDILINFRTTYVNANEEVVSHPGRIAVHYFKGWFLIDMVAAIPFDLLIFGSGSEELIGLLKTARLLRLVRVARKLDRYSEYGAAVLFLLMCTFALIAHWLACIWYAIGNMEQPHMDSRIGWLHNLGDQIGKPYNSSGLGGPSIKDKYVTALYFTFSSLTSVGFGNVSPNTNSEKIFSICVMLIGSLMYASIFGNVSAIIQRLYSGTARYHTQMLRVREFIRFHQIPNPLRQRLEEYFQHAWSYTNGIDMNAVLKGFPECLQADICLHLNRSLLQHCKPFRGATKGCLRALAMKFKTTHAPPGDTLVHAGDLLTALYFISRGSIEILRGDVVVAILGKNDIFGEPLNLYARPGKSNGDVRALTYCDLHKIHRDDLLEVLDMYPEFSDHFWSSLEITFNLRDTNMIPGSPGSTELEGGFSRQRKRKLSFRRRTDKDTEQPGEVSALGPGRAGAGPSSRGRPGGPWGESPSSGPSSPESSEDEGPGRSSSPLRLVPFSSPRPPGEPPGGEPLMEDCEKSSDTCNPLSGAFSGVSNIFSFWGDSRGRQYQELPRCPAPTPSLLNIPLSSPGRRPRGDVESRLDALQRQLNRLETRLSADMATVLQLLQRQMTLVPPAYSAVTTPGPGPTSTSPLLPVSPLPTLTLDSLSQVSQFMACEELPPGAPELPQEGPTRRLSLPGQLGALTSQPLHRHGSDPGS

Structure (SMILES)	hERG current change (%, negative = inhibition) at 1uM
Cc1ccc(C2=NS(=O)(=O)N(C)C(C(=O)Nc3cc(C)n(CC(=O)N4CCCCC4)n3)=C2)cc1	14.4%
CC(C)CCC(CCN1CCOCC1)c1ccc2c(c1)OCO2.Cl (stereo not drawn)	-76.8%
Cc1cccc(-n2c(=S)[nH]c3c(oc4ccccc43)c2=O)c1	14.6%
CN(C)C(=S)Nc1cccc(C(F)(F)F)c1	1.12%
N#Cc1ccccc1S(=O)(=O)c1ccccc1C(=O)Nc1ccccc1	12.5%
O=C(O)C1CCCN1C(=O)Nc1ccccc1 (stereo not drawn)	13.2%
CN(C)CCNC(=O)c1ccccc1-c1cc2ccccc2c(=O)o1	1.4%
O=C(Nc1nc(-c2ccc(-c3ccccc3)cc2)cs1)c1cc([N+](=O)[O-])ccc1N1CCOCC1	6.31%
COc1ccc2cc(C(=O)/C=C/c3cc(OC)c(OC)c(OC)c3)ccc2c1	15.4%
CC(C)c1nnc(NC(=O)C2CCN(c3cnccn3)CC2)s1	0.597%
COc1cccc(NC(=O)N2CCc3ccccc3C2)c1	20.5%
CCN(CC)CCN1C(=O)C(=O)/C(=C(/O)c2c(C)[nH]c(C(=O)OC)c2C)C1c1ccco1 (stereo not drawn)	2.31%
Cc1ccc(CCn2c3c(c4ccccc42)CN(C)CC3)cn1	-1.37%
Cc1onc(C(=O)NC(C)c2ccccc2)c1[N+](=O)[O-] (stereo not drawn)	5.51%
CN(CC(=O)Nc1cccc(F)c1)C(=O)c1ccc2c(c1)S(=O)(=O)N=C1CCCCCN12	19.2%
Cc1nc(NC(=O)c2ccc(Br)s2)sc1C(=O)N(C)C	-1.48%
COCCn1nnnc1C(C(C)C)N1CCSCC1.Cl (stereo not drawn)	59.7%
O=C(Cn1c(-c2ccccc2)c[n+]2ccsc12)c1ccccc1.[Br-]	-0.507%
O=C(CCN1C(=O)c2cccc3cccc(c23)C1=O)Nc1ccon1	8.6%
O=C(/C=C/Nc1nccs1)C(F)(F)Cl	11.9%
CCCN1CCC(=O)N(CCSc2ccccc2)CC1	6.94%

Structure (SMILES)	hERG current change (%, negative = inhibition) at 1uM
COc1ccc(C2=CC(c3ccc(OC)c(OC)c3)n3nnnc3N2)c(OC)c1 (stereo not drawn)	6.04%
Cn1c(Cn2c(=O)sc3ccccc32)nnc1SCC(=O)NC1CCCCC1	14.9%
Nc1n[nH]c(-c2cccc([N+](=O)[O-])c2)n1	14.1%
O=Cc1ccc(OCC(=O)Nc2ccccc2C(F)(F)F)cc1	6.83%
N#Cc1cc([N+](=O)[O-])cnc1N(CCO)CCO	9.17%
C=CCN(c1ccccc1C(=O)NCC(=O)OCC)S(=O)(=O)c1ccc(C)cc1	10.3%
COCCCNC(=S)N1CCN(C(=O)C(=O)Nc2ccc(C(=O)OC)cc2)CC1	2.94%
CCCN1CCN(CCCNC(=O)C2CCN(c3nnc(-n4cccc4)s3)CC2)CC1	4.95%
O=S(=O)(Nc1ccc(S(=O)(=O)Nc2ncccn2)cc1)c1ccccc1	13.2%
CCOc1ccc(-c2nnc(NC(=O)c3ccc(OCC(C)C)c(OC)c3)o2)cc1	11.3%
CCN(C(=O)CSc1nnc(NCc2ccccc2)s1)C1CCS(=O)(=O)C1 (stereo not drawn)	3.15%
Oc1ccccc1CNc1ccc(OC(F)(F)F)cc1	-1.42%
CS(=O)(=O)N(CC(=O)N1CCCC1)c1ccccc1Br	10.7%
O=C(Nc1cc2c3c(c1)C1CCCC1CN3CC1CCCC21)c1ccc([N+](=O)[O-])cc1 (stereo not drawn)	16.6%
CC(C)N(C(=O)C[n+]1ccsc1N)c1ccccc1.[Cl-]	12.6%
O=C(COc1ccc(F)cc1)NCC1CCCO1 (stereo not drawn)	7.18%
O=C(/C=C/c1ccccc1)Oc1coc(CSc2ncccn2)cc1=O	6.71%
Cc1ccccc1CNC(=O)c1ccccc1N	-1.64%
Cc1ccc(NC2SC(=O)N(CC(=O)O)C2=O)cc1 (stereo not drawn)	2.54%
Cc1cc(Cl)ccc1NC(=S)Nc1cccnc1	-7.02%
CC1CCCCC1NC(=O)CN(C)S(=O)(=O)c1ccc2c(c1)c(=O)n(C)c(=O)n2C (stereo not drawn)	4.42%

Source: paper PMC4336329 (PLoS ONE, 2015)
